Publication PMC3305458, “E2F1 Mediated Apoptosis Induced by the DNA Damage Response Is Blocked by EBV Nuclear Antigen 3C in Lymphoblastoid Cells” (PLoS Pathogens, 2012)
Results are given in words; binding and its absence hold for the method and conditions named. In cells and extracts the contact can be indirect. Some binding calls cover weakened binding; strength is not graded here.

Columns and labels:
[1] = target: GST-fused wild-type E2F1 (residues 1–437) (UniProt Q01094); assay: pull-down; GST or GST-E2F1 fusion proteins incubated with in vitro-translated 35S-labeled EBNA3C proteins precleared with GST-beads; binding buffer 1x PBS, 0.1% NP-40, 0.5 mM DTT, 10% glycerol, protease inhibitors; SDS-PAGE and phosphoimager; only the target purified
[2] = target: GST-fused E2F1 residues 1–243 (UniProt Q01094); assay: as above
[3] = target: flag-tagged E2F1 mutant (residues 1–400), pRb binding deficient (UniProt Q01094); assay: co-IP; 10 million HEK 293 (pRb+/+) cells co-transfected, harvested after 36 h, RIPA buffer; IP with anti-flag antibody (M2), blot with anti-myc
[4] = target: flag-tagged E2F1 residues 1–243 (UniProt Q01094); assay: as above
[5] = target: flag-tagged E2F1 residues 1–310 (UniProt Q01094); assay: as above
[6] = target: flag-tagged E2F1 residues 243–437 (UniProt Q01094); assay: as above
[7] = target: flag-tagged wild-type E2F1 (residues 1–437) (UniProt Q01094); assay: as above
[8] = target: flag-tagged E2F1 mutant (residues 1–400), pRb binding deficient (UniProt Q01094); assay: co-IP; 10 million Saos-2 (pRb-/-) cells co-transfected, harvested after 36 h, RIPA buffer; IP with anti-flag antibody, blot with anti-myc
[9] = target: flag-tagged wild-type E2F1 (residues 1–437) (UniProt Q01094); assay: as above

in vitro-translated EBNA3C (residues 1–992) (from UniProt P03204 1-992)
binding [1]: binds | binding [2]: binds

in vitro-translated EBNA3C residues 1–100 (from UniProt P03204 1-100) (domain or fragment)
binding [1]: no binding

in vitro-translated EBNA3C residues 1–129 (from UniProt P03204 1-129) (domain or fragment)
binding [1]: binds

in vitro-translated EBNA3C residues 1–159 (from UniProt P03204 1-159) (domain or fragment)
binding [1]: binds

in vitro-translated EBNA3C residues 1–250 (from UniProt P03204 1-250) (domain or fragment)
binding [1]: binds

in vitro-translated EBNA3C residues 1–300 (from UniProt P03204 1-300) (domain or fragment)
binding [1]: binds

in vitro-translated EBNA3C residues 1–365 (from UniProt P03204 1-365) (domain or fragment)
binding [1]: binds

in vitro-translated EBNA3C residues 50–300 (from UniProt P03204 50-300) (domain or fragment)
binding [1]: binds

in vitro-translated EBNA3C residues 130–300 (from UniProt P03204 130-300) (domain or fragment)
binding [1]: binds

in vitro-translated EBNA3C residues 160–300 (from UniProt P03204 160-300) (domain or fragment)
binding [1]: binds

in vitro-translated EBNA3C residues 200–300 (from UniProt P03204 200-300) (domain or fragment)
binding [1]: no binding

myc-tagged EBNA3C (residues 1–992) (from UniProt P03204 1-992)
binding [3]: binds | binding [4]: binds | binding [5]: binds | binding [6]: no binding | binding [7]: binds | binding [8]: binds | binding [9]: binds

myc-tagged EBNA3C residues 1–365 (from UniProt P03204 1-365) (domain or fragment)
binding [3]: binds

myc-tagged EBNA3C residues 366–620 (from UniProt P03204 366-620) (domain or fragment)
binding [3]: no binding

myc-tagged EBNA3C residues 700–900 (from UniProt P03204 700-900) (domain or fragment)
binding [3]: no binding
